Laboratory results taken from paper PMC4336329 (PLoS ONE, 2015).
Hit rate of the full screen: of about 310,000 compounds, about 14,000 (4.5%) showed an effect of 50% or more. Effects have a minus sign here. The list shows a part of the results.

What follows are compounds tested against human ether-à-go-go-related gene (hERG) potassium channel (human, UniProt Q12809) (assay: primary screen, population patch clamp on CHO cells stably expressing hERG).
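Also: peak tail current of the secondary pulse compared with the same well before compound.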

Chain of human ether-à-go-go-related gene (hERG) potassium channel (Q12809 whole entry, looked up): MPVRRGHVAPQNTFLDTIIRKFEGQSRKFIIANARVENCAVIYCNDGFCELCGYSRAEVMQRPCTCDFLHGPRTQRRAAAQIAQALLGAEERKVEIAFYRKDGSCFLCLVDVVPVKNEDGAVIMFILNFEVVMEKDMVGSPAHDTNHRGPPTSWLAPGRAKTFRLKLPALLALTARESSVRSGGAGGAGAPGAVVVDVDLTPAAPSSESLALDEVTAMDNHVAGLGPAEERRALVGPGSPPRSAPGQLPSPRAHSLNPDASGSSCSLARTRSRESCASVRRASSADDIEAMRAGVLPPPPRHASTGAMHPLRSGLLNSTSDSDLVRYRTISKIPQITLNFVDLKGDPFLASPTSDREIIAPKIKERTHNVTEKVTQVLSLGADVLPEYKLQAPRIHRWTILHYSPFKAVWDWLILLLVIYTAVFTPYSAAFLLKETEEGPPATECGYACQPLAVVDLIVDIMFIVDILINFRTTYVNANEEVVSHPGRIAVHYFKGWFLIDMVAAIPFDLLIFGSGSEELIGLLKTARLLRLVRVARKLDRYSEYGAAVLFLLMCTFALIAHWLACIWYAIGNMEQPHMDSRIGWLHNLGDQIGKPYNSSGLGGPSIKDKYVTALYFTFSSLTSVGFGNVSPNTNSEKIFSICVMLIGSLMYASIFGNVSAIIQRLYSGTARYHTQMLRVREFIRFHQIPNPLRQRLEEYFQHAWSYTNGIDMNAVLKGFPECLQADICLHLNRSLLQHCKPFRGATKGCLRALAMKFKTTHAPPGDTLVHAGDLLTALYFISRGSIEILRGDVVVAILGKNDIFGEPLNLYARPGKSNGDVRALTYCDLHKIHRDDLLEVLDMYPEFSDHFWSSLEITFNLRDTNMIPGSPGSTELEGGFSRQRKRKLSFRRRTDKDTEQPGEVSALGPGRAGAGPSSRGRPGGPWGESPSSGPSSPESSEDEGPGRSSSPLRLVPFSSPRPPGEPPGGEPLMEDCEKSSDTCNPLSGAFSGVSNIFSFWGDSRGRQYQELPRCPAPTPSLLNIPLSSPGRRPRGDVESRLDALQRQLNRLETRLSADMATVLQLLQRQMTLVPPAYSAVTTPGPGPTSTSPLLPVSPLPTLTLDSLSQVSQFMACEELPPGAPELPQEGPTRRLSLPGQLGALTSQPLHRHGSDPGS

Row | SMILES | hERG current change (%, negative = inhibition) at 10uM [%]
1 | Cc1cnc(C(=O)OCC(=O)N2c3ccccc3CC2C)cn1 (stereo not drawn) | 2.42
2 | Cc1noc(C)c1C(=O)OCC(=O)N(C)C1(C#N)CCCCC1 | -9.75
3 | COc1cccc(CNC(=O)C2CCCN(S(=O)(=O)c3c(C)[nH]c(=O)[nH]c3=O)C2)c1 (stereo not drawn) | 3.7
4 | COC(=O)CNC(=O)C(Cc1c[nH]c2ccccc12)NC(=O)Oc1ccccc1 (stereo not drawn) | 4.19
5 | Cn1c(CNC(=O)c2ccc3c(c2)OCO3)nnc1SCC(=O)Nc1ccccc1Cl | -9.67
6 | CC(C)(C)[C@@H]1C=C(C(=O)NC2CC2)O[C@H](OCc2ccc(CO)cc2)C1 | 1.67
7 | Cc1ccc(C(=O)COC(=O)COc2ccccc2[N+](=O)[O-])s1 | 11.3
8 | O=C1NC(c2cccc([N+](=O)[O-])c2)=CCN1c1ccccc1O | 4.45
9 | CN1C2C=C3C(C#N)=C(N)C(C#N)(C#N)[C@@H](c4ccsc4)[C@@H]3C1CC2 (stereo partly drawn) | -8.52
10 | COc1ccc(C2c3c(oc4ccc(Cl)cc4c3=O)C(=O)N2CCN2CCOCC2)cc1 (stereo not drawn) | -81.2
11 | Cc1cc(N2CCN(Cc3ccccc3)CC2)n2nc(C)c(-c3ccccc3)c2n1 | -6.01
12 | O=C(CSc1nccn1Cc1ccccc1)NC1CCCC1 | 12.8
13 | CCC(NC(=O)NC1CCCCC1)c1ccccc1 (stereo not drawn) | -1.62
14 | Cc1cc(C)n(CC(=O)N/N=C/c2ccccn2)n1 | 16.4
15 | CC(=O)c1ccc(N=Nc2c(C)[nH][nH]c2=O)cc1 | 11.5
16 | CCOc1ncccc1C(=O)OCC(=O)N(CC(C)C)c1c(N)n(Cc2ccccc2)c(=O)[nH]c1=O | 24.2
17 | Cc1ccc2sc(NC(=O)C3CC3)nc2c1C | 3.92
18 | O=C(O)C1CCCCC1C(=O)NCCc1ccc(Cl)cc1 (stereo not drawn) | 7.73
19 | O=C(NCc1ccncc1)Nc1ccccc1 | 6.89
20 | CN(C)c1ccc(S(=O)(=O)N(C)C)cc1NC(=O)Cc1cccc2ccccc12 | 0.545
21 | COc1ccc(NC(=O)CSc2nnc(CN3CCOCC3)n2C)cc1Cl | -6.51
22 | COCCCNC(=S)N(CCCN(C)C)Cc1cc2cc3c(cc2[nH]c1=O)OCCO3 | -5.1

Row | SMILES | hERG current change (%, negative = inhibition) at 10uM [%]
23 | O=C(N/N=C/c1cccnc1)c1ccc(NC(=O)c2ccccc2Cl)cc1 | -5.91
24 | Cc1ccc(SCCNS(=O)(=O)c2ccc3c(c2)OCCO3)cc1 | 2.17
25 | N#C/C(=C\c1ccccc1[N+](=O)[O-])C(=O)NC1CCCCC1 | -13.9
26 | Cn1c(=O)c2c(ncn2Cc2ccc(Cl)cc2)n(C)c1=O | -7.58
27 | O=C(NCCCO)c1nc2ccccc2s1 | -12.8
28 | COc1ccc2cnn(-c3ccccc3)c(=O)c2c1OC | 11.4
29 | COc1ccc(CC(NC(C)=O)C(=O)NC2CCN(C(=O)Nc3ccccc3Cl)CC2)cc1OC (stereo not drawn) | 12.7
30 | COCc1cc(=O)n2c(-c3ccc(C)cc3)n[nH]c2n1 | 11.4
31 | Cc1c(C(=O)OCC(=O)c2c(N)n(CC(C)C)c(=O)n(C)c2=O)oc2ccccc12 | -18.5
32 | O=C(CN1CCCCC1)Nc1ccccc1Oc1ccccc1 | -31.7
33 | Cc1cc(N2CCN(C)CC2)nc2ccc(NC(=O)CCC(=O)NCCC3=CCCCC3)cc12 | -11.9
34 | CC(=O)c1cccc(NC(=O)N2CCCCCC2)c1 | 1.5
35 | COC(=O)CNC(=O)/C=C/c1cc(Br)ccc1OC | 10.4
36 | CC(C)CN1C(=O)C(=O)N(CC(=O)Nc2cc(Cl)ccc2Oc2ccccc2)C1=O | -9.89
37 | CN(CCO)c1cc(N2CCN(C(=O)c3ccco3)CC2)c2nonc2c1[N+](=O)[O-] | -39
38 | COc1ccc(CNC(=O)c2cnn3c(C(F)F)cc(C)nc23)cc1OC | 12.2
39 | Cc1cc(C)nc(-n2ncc3c2CC(c2ccc(C(C)C)cc2)CC3=O)n1 (stereo not drawn) | -6.16
40 | COc1ccc(N(Cc2cc3ccccc3[nH]c2=O)C(=O)C2CCCO2)cc1 (stereo not drawn) | 1.4
41 | Cc1csc(SCC(=O)c2c(N)n(CC(C)C)c(=O)n(C)c2=O)n1 | -9.84
42 | COc1ccc(Cl)cc1NC(=O)COC(=O)/C=C/c1c(C)nn(C2CCS(=O)(=O)C2)c1Cl (stereo not drawn) | -0.68
43 | CC1Cc2cc(/C(O)=C3/C(=O)C(=O)N(CCN4CCOCC4)C3c3ccc(N(C)C)cc3)ccc2O1 (stereo not drawn) | 23.7
44 | COc1ccc(NC(=S)NCCCN2CCCC2)cc1Cl | -3.97

Row | SMILES | hERG current change (%, negative = inhibition) at 10uM [%]
45 | Cc1cc(S(=O)(=O)NC2CCCCC2)c(C)s1 | -7.51
46 | CCc1noc(C)c1C(=O)Nc1nc(-c2ccc(OC)cc2OC)cs1 | 10.9
47 | Cc1cccc(C(=O)N2CCCCCC2)c1[N+](=O)[O-] | 11
48 | CCOc1ccc(Nc2nc(N3CCCC3)nc(N3CCN(c4ccc(OC)cc4)CC3)n2)cc1 | 13.6
49 | Cc1ccc(S(=O)(=O)N(C)Cc2ccccc2)cc1C(=O)N1CCCCC1 | -40.8
50 | CCOCCCNC(=O)C1CCN(Cc2ccc(OCc3ccccc3)c(OC)c2)CC1.O=C(O)C(=O)O | -43.3
51 | CCCOC(=O)c1ccc(Oc2coc3c(CN(CC)CC)c(O)ccc3c2=O)cc1 | -22.7
52 | CC(C)(C)NC(=O)COc1ccc(CNCCc2ccccc2)cc1.Cl | 6.24
53 | Cc1c(Cl)cnc(NC(=O)COC(=O)c2cc3c(s2)CCC(C)C3)c1Cl (stereo not drawn) | 16.4
54 | O=C1NC(=O)/C(=C/c2ccco2)N1 | 10.5
55 | CN1CCN(CCCNC(=O)c2ccc(/C=C3\Oc4ccccc4N(Cc4ccccc4F)C3=O)cc2)CC1 | 6.08
56 | Cc1cc(NC(=O)CSc2nc(C3CC3)nc3sc4c(c23)CCC(C)C4)no1 (stereo not drawn) | 10
57 | COc1ccc(C2=NO[C@@H]3[C@@H]4C[C@@H]([C@H]5C(=O)N(C)C(=O)[C@@H]45)[C@H]23)cc1 | -22.4
58 | O=c1oc2ccccc2c(Nc2ccc3ncccc3c2)c1[N+](=O)[O-] | -12.8
59 | COc1ccc(-c2noc(CN3CCN(c4ccccc4F)CC3)n2)cc1OC | -10.4
60 | C=CCN(CC=C)C(=O)CN1C(=O)c2ccccc2C1=O | 9.73
61 | COc1ccc(N2CCN(C(=O)COc3ccc4c(C)c(C)c(=O)oc4c3C)CC2)cc1 | 7.27
62 | COC(=O)c1ccc(OCc2nn[nH]n2)cc1 | 14.4
63 | Cc1ccc(S(=O)(=O)N2CCC(C(=O)N3CCC4(CC3)OCCO4)CC2)cc1 | -12
64 | COc1ccc(CCN(Cc2ccccn2)C(=S)Nc2ccccc2F)cc1OC | -24.6
65 | Fc1cccc2sc(Nc3nc4c(F)cccc4s3)nc12 | 5.38
66 | NS(=O)(=O)c1ccc(NC(=O)COC(=O)CSCc2ccc(F)cc2)cc1 | 13.7

Row | SMILES | hERG current change (%, negative = inhibition) at 10uM [%]
67 | O=C(OCc1ccccc1F)c1ccc2c(c1)OCCO2 | 7.26
68 | CN(C)C=Nc1ncc2c([nH]c3ccccc32)c1C#N | -4.57
69 | Cc1cc(C)c(C#N)c(SCc2ccc(C#N)cc2)n1 | 3.03
70 | CN(CC(=O)NCCc1ccc(F)cc1)Cc1cccs1 | -14.7
71 | O=C(O)c1ccc(N2C(=O)CC(N3CCC(c4nc5ccccc5[nH]4)CC3)C2=O)cc1 (stereo not drawn) | 4.95
72 | COc1ccc(CN2CCN(Cc3cccc4nonc34)CC2CCO)c(C)c1C (stereo not drawn) | -68.3
73 | O=[N+]([O-])c1cccc(-c2nnc3c4ccccc4c4ccccc4n23)c1 | 0.504
74 | CC(=O)Nc1ccc(SCCN2CC[C@@H](O)CCC2=O)cc1 | 4.8
75 | COc1ccccc1NC(=O)C(C)OC(=O)c1cccc(-n2cnnn2)c1 (stereo not drawn) | -35.2
76 | Cc1onc(-c2ccccc2Cl)c1C(=O)Nc1ccc(-n2nncc2-c2ccco2)cc1 | -5.17
77 | COCCCNCCOCCOc1ccc(Cl)cc1Br.O=C(O)C(=O)O | -51.9
78 | CCOc1cc(/C=N\NC(=O)c2ccc(NC(=O)C(C)(C)C)cc2)ccc1OC(=O)c1cccc(C)c1 | 10
79 | O=C(CSc1nnc(-c2ccccc2Br)o1)N1CCN(C(=O)c2ccco2)CC1 | -40.9
80 | O=C(CSc1ncnc2c1nnn2Cc1ccccc1)NC1CCCCC1 | 2.09
81 | COCCn1nnnc1C(C(C)C)N1CCOCC1.Cl (stereo not drawn) | 0.112
82 | Cc1ccccc1NC(=O)NC(N)=O | 1.83
83 | CCOc1cc2c(Cl)ncnc2c(OCC)c1OCC | 23.3
84 | CC1(C)CC(=O)C=C(c2ccc(Cl)c(C(F)(F)F)c2)C1 | -8.31
85 | O=C(CCc1nnc(CCCc2ccccc2)o1)NCCc1ccccc1 | -12
86 | Cc1ccc(-c2csc(NCCn3c(C(F)(F)F)nc4ccccc43)n2)cc1 | 5.75
87 | CC(=O)OC(C)[C@H]1CC[C@H]2[C@@H]3CC[C@H]4C[C@@H](OC(C)=O)CC[C@]4(C)C3=CC[C@]12C (stereo partly drawn) | 13.2
